Test results taken from the supplement of paper PMC8728848.
Some of the results follow.

Experiments:
Experiment in all cases: glycan array binding signal (z-score within array); higher = stronger binding
Details in all cases: glycan notation: IUPAC condensed, linker removed
[1] = molecular target: Fuc(a1-2)[Gal(a1-3)]Gal(b1-4)GlcNAc(b1-2)Man(a1-3)[Fuc(a1-2)[Gal(a1-3)]Gal(b1-4)GlcNAc(b1-2)Man(a1-6)]Man(b1-4)GlcNAc(b1-4)[Fuc(a1-6)]GlcNAc
In short: (§1)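 From the Consortium for Functional Glycomics database, 3228 arrays were curated, keeping only those whose protein sequence was available. Binding is given as a within-array Z-score averaged across arrays sharing a protein sequence and across linkers. Negative Z-scores can be read as non-binding.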

[2] = molecular target: Fuc(a1-2)[Gal(a1-3)]Gal(b1-4)GlcNAc(b1-3)GalNAc
In short: as §1

[3] = molecular target: Fuc(a1-2)[Gal(a1-3)]Gal(b1-4)GlcNAc(b1-6)GalNAc
In short: as §1

[4] = molecular target: Fuc(a1-2)[Gal(a1-3)]Gal(b1-4)[Fuc(a1-3)]Glc
In short: as §1

[5] = molecular target: Fuc(a1-2)[Gal(a1-3)]Gal(b1-4)[Fuc(a1-3)]GlcNAc
In short: as §1

[6] = molecular target: Fuc(a1-2)[Gal(a1-3)]Gal(b1-4)[Fuc(a1-3)]GlcNAc(b1-3)GalNAc
In short: as §1

[7] = molecular target: Fuc(a1-2)[Gal(a1-4)]Gal(b1-4)GlcNAc
In short: as §1

[8] = molecular target: Fuc(a1-2)[GalNAc(a1-3)]Gal
In short: as §1

[9] = molecular target: Fuc(a1-2)[GalNAc(a1-3)]Gal(b1-3)GalNAc(a1-3)[Fuc(a1-2)]Gal(b1-4)GlcNAc
In short: as §1

[10] = molecular target: Fuc(a1-2)[GalNAc(a1-3)]Gal(b1-3)GalNAc(b1-3)Gal(a1-4)Gal(b1-4)Glc
In short: as §1

[11] = molecular target: Fuc(a1-2)[GalNAc(a1-3)]Gal(b1-3)GlcNAc
In short: as §1

[12] = molecular target: Fuc(a1-2)[GalNAc(a1-3)]Gal(b1-3)GlcNAc(b1-2)Man(a1-3)[Fuc(a1-2)[GalNAc(a1-3)]Gal(b1-3)GlcNAc(b1-2)Man(a1-6)]Man(b1-4)GlcNAc(b1-4)GlcNAc
In short: as §1

[13] = molecular target: Fuc(a1-2)[GalNAc(a1-3)]Gal(b1-3)GlcNAc(b1-2)Man(a1-3)[Fuc(a1-2)[GalNAc(a1-3)]Gal(b1-3)GlcNAc(b1-2)Man(a1-6)]Man(b1-4)GlcNAc(b1-4)[Fuc(a1-6)]GlcNAc
In short: as §1

[14] = molecular target: Fuc(a1-2)[GalNAc(a1-3)]Gal(b1-3)GlcNAc(b1-3)GalNAc
In short: as §1

[15] = molecular target: Fuc(a1-2)[GalNAc(a1-3)]Gal(b1-3)GlcNAc(b1-6)GalNAc
In short: as §1

[16] = molecular target: Fuc(a1-2)[GalNAc(a1-3)]Gal(b1-4)Glc
In short: as §1

[17] = molecular target: Fuc(a1-2)[GalNAc(a1-3)]Gal(b1-4)GlcNAc
In short: as §1

[18] = molecular target: Fuc(a1-2)[GalNAc(a1-3)]Gal(b1-4)GlcNAc(b1-2)Man
In short: as §1

[19] = molecular target: Fuc(a1-2)[GalNAc(a1-3)]Gal(b1-4)GlcNAc(b1-2)Man(a1-3)[Fuc(a1-2)[GalNAc(a1-3)]Gal(b1-4)GlcNAc(b1-2)Man(a1-6)]Man(b1-4)GlcNAc(b1-4)GlcNAc
In short: as §1

[20] = molecular target: Fuc(a1-2)[GalNAc(a1-3)]Gal(b1-4)GlcNAc(b1-2)Man(a1-3)[Fuc(a1-2)[GalNAc(a1-3)]Gal(b1-4)GlcNAc(b1-2)Man(a1-6)]Man(b1-4)GlcNAc(b1-4)[Fuc(a1-6)]GlcNAc
In short: as §1

[21] = molecular target: Fuc(a1-2)[GalNAc(a1-3)]Gal(b1-4)GlcNAc(b1-3)Gal(b1-4)GlcNAc
In short: as §1

[22] = molecular target: Fuc(a1-2)[GalNAc(a1-3)]Gal(b1-4)GlcNAc(b1-3)Gal(b1-4)GlcNAc(b1-3)Gal(b1-4)GlcNAc
In short: as §1

[23] = molecular target: Fuc(a1-2)[GalNAc(a1-3)]Gal(b1-4)GlcNAc(b1-3)GalNAc
In short: as §1

[24] = molecular target: Fuc(a1-2)[GalNAc(a1-3)]Gal(b1-4)GlcNAc(b1-3)[Fuc(a1-2)[GalNAc(a1-3)]Gal(b1-4)GlcNAc(b1-6)]GalNAc
In short: as §1

[25] = molecular target: Fuc(a1-2)[GalNAc(a1-3)]Gal(b1-4)GlcNAc(b1-6)GalNAc
In short: as §1

[26] = molecular target: Fuc(a1-2)[GalNAc(a1-3)]Gal(b1-4)[Fuc(a1-3)]GlcNAc
In short: as §1

[27] = molecular target: Fuc(a1-2)[GalNAc(a1-3)]Gal(b1-4)[Fuc(a1-3)]GlcNAc(b1-3)GalNAc
In short: as §1

[28] = molecular target: Fuc(a1-2)[GalNAc(a1-4)]Gal(b1-4)GlcNAc
In short: as §1

[29] = molecular target: Fuc(a1-2)[GalNAc(b1-3)]Gal
In short: as §1

Fuc(a1-3)GlcNAc = molecular target: Fuc(a1-3)GlcNAc
In short: as §1

[30] = molecular target: Fuc(a1-3)[Gal(b1-4)]Glc6S
In short: as §1

[31] = molecular target: Fuc(a1-3)[Gal(b1-4)]GlcNAc
In short: as §1

[32] = molecular target: Fuc(a1-3)[Gal(b1-4)]GlcNAc(b1-2)Man
In short: as §1

[33] = molecular target: Fuc(a1-3)[Gal(b1-4)]GlcNAc(b1-2)Man(a1-3)[Fuc(a1-3)[Gal(b1-4)]GlcNAc(b1-2)Man(a1-6)]Man(b1-4)GlcNAc(b1-4)GlcNAc
In short: as §1

[34] = molecular target: Fuc(a1-3)[Gal(b1-4)]GlcNAc(b1-2)Man(a1-3)[Fuc(a1-3)[Gal(b1-4)]GlcNAc(b1-2)Man(a1-6)]Man(b1-4)GlcNAc(b1-4)[Fuc(a1-6)]GlcNAc
In short: as §1

[35] = molecular target: Fuc(a1-3)[Gal(b1-4)]GlcNAc(b1-3)Gal(b1-3)[Fuc(a1-4)]GlcNAc
In short: as §1

[36] = molecular target: Fuc(a1-3)[Gal(b1-4)]GlcNAc(b1-3)Gal(b1-4)[Fuc(a1-3)]GlcNAc
In short: as §1

B1: FliD (Clostridium difficile) (protein)
chain: MSSISPVRVTGLSGNFDMEGIIEASMIRDKEKVNKAKQDQQIVKWKQEIYRDIIKESKNLYDKYLNGDSPNSITNKKAYSATRITSSDESIIVAKGSAGAEKINYQFAVSQMAEPAKVTIKLNSSDPIVQQFPPNASGASSLNIGGVNIPISEQDTTSTIVSKINSLCADNDIRASYSEMTGELIISRKQTGSSSDIDLKVIGNDSLAGQIASDNGITFTTDASGTKSAVVYGKNLEADVTDDQGRVTHISKEQNSFKIDNIDYNVNSKGSAKLVSVTDTEEATKNMKAFVDDYNALMDKVYGLVTTKKSKDYPPLTDEQKDDMTTEEIEKWEKKAKEGILRNDDELRAFVEDIQSMFFGDADTIIALRKLGISEHENYNKKGQISFNADTFSKALIDDSDKVYKALAGYSSNYDDKGMFEKLKKIVFEYSGSSASKLTKKAGMENSSSASQNVYSKQIAEQERNISRLVEKMNDKEKRLYAKYSALESLLNKYSSQMNYFSQAQGN
glycan array binding signal (z-score) [1]: -0.23 | glycan array binding signal (z-score) [2]: -0.1 | glycan array binding signal (z-score) [3]: -0.207 | glycan array binding signal (z-score) [4]: -0.18 | glycan array binding signal (z-score) [5]: 0.013 | glycan array binding signal (z-score) [6]: -0.214 | glycan array binding signal (z-score) [7]: 0.139 | glycan array binding signal (z-score) [8]: -0.135 | glycan array binding signal (z-score) [9]: -0.245 | glycan array binding signal (z-score) [10]: -0.257 | glycan array binding signal (z-score) [11]: -0.118 | glycan array binding signal (z-score) [12]: -0.203 | glycan array binding signal (z-score) [13]: -0.178 | glycan array binding signal (z-score) [14]: -0.104 | glycan array binding signal (z-score) [15]: -0.222 | glycan array binding signal (z-score) [16]: -0.242 | glycan array binding signal (z-score) [17]: -0.235 | glycan array binding signal (z-score) [18]: -0.196 | glycan array binding signal (z-score) [19]: -0.017 | glycan array binding signal (z-score) [20]: 0.104 | glycan array binding signal (z-score) [21]: -0.244 | glycan array binding signal (z-score) [22]: 0.128 | glycan array binding signal (z-score) [23]: -0.185 | glycan array binding signal (z-score) [24]: -0.234 | glycan array binding signal (z-score) [25]: -0.248 | glycan array binding signal (z-score) [26]: 0.061 | glycan array binding signal (z-score) [27]: -0.115 | glycan array binding signal (z-score) [28]: -0.178 | glycan array binding signal (z-score) [29]: -0.226 | glycan array binding signal (z-score) (Fuc(a1-3)GlcNAc): -0.146 | glycan array binding signal (z-score) [30]: -0.046 | glycan array binding signal (z-score) [31]: -0.054 | glycan array binding signal (z-score) [32]: -0.147 | glycan array binding signal (z-score) [33]: -0.161 | glycan array binding signal (z-score) [34]: -0.161 | glycan array binding signal (z-score) [35]: -0.182 | glycan array binding signal (z-score) [36]: 0.072
